Data on four compounds can be found in patent US4447445A (priority 1983, dated 1984).

Structures are written as SMILES. Like-named read-outs stand apart in the source and are kept apart here.

The subject of data set [1] is mice. The note with it: mouse, in vivo.
Data set [2] has as its system mice. The data set can be described thus: animal or person. The note with it: for ED50: Mus musculus, sc, 0.5 h. The protocol: Test compound is injected subcutaneously into mice. After 30 minutes, phenylquinone is injected intra-peritoneally to cause pain as indicated by writhing. Absence of or a statistically significant decrease in writhing is considered evidence of analgesia [Hendershot, L. C. and G. Forsaith, Pharmacol. Exp. Ther. 125, 237 (1959)].

Data set [3] deals with PMA induced inflammation of mouse ears. The data set can be described thus: PMA Mouse Ear Anti-Inflammatory Assay. The format is in vivo. The note with it: Table I dose response studies. The method, then:
Test compound and phorbol myristate acetate (PMA) or arachidonic acid (ARA) are topically applied simultaneously to the left ears of mice. Three hours 20 minutes (or one hour for ARA) after application, the mouse is sacrificed, left and right ears removed and standard sized bores taken. Edema (inflammation) is measured as the difference in weight between left and right ears [Van Arman, C. G., Clin. Pharmacol. Ther. 16, 900-904 (1974)].

In the case of `C[C@]12CCC(=O)C=C1CC[C@@H]1[C@@H]2[C@@H](O)C[C@@]2(C)[C@H]1CC[C@]2(O)C(=O)CO` [Hydrocortisone, hydrocortisone, reference compound], in the data set with mice [1], the “Blood Analysis wbc, figure in brackets (difference to control)” value is listed as “+71.0”; the “Blood Analysis wbc, mean” value stood at 2850; the “Body Weight day 0, figure in brackets (difference to control)” value is reported as “+1.1”; the “Body Weight day 0, mean” value is 18.1 g. Further, in the data set on mice [1], the “Body Weight day 7, figure in brackets (difference to control)” value was -13.2; the “Body Weight day 7, mean” value was 22.3 g; the “Food Consumption, figure in brackets (difference to control)” value is on record as “+13.6”; the “Food Consumption, mean” value is listed as 6.69. In addition, in the data set on mice [1], the “H2 O Consumption, figure in brackets (difference to control)” value is recorded as “+21.0”; the “H2 O Consumption, mean” value was found to be 9.8; the “Organ Wts Adrenal, figure in brackets (difference to control)” value is -20.9; the “Organ Wts Adrenal, mean” value is reported as 11.01. In the data set on mice [1], the “Organ Wts Heart, figure in brackets (difference to control)” value is on record as “+32.4”; the “Organ Wts Heart, mean” value was determined as 0.56; the “Organ Wts Kidney, figure in brackets (difference to control)” value was 15.8; the “Organ Wts Kidney, mean” value stood at 1.63. For the same compound, in the data set on mice [1], the “Organ Wts Liver, mean” value came to 5.67; the “Organ Wts Spleen, figure in brackets (difference to control)” value is -63.8; the “Organ Wts Spleen, mean” value was found to be 0.17; the “Organ Wts Testes, figure in brackets (difference to control)” value is “+18.1”. For the same compound, in the data set on mice [1], the “Organ Wts Testes, mean” value came out at 0.62; the “Organ Wts Thymus, figure in brackets (difference to control)” value is -81.6; the “Organ Wts Thymus, mean” value was 0.08; the “effect on adrenal gland weight” value was “reduction of adrenal gland, spleen weights and body weight”. In the data set with mice [1], the “effect on body weight” value was “reduction of adrenal gland, spleen weights and body weight”; the “effect on spleen” value was “reduction of adrenal gland, spleen weights and body weight”; the “effect on thymus weight and size” value is on record as “expected thymus involution”; the “increase in white blood cell count over control” value was “did not”.
Usually ED50 stands for the dose that gives a 50% effect, or the effect in half of the subjects. For the compound `COc1ccc2c(c1)c(CC(=O)O)c(C)n2C(=O)c1ccc(Cl)cc1` [Indomethacin, indomethacin, reference compound], in the data set on mice [2] (read-out: ED50 (analgesia)), the ED50 is about 5 mg/kg.
As to `CC1=C(CC/C(C)=C/CCC2=CCC(C3=CC(=O)OC3O)OC2O)C(C)(C)CCC1` (centres unmarked) [Manoalide], in the data set with mice [2] (read-out: Analgesia (Phenylquinone Writhing) ED50), the ED50 turned out to be 40 mg/kg. The ED50 in the data set on mice [2] (read-out: ED50 (analgesia)) was about 40 mg/kg. The “time of peak analgesic effect after administration” value with mice [2] (mouse, in vivo) is given as “about two”. Moreover, in the data set on mice [1], the “Acute Inflamation with PMA, figure in brackets (difference to control)” value is given as “+14.8”; the “Acute Inflamation with PMA, mean” value is on record as 15.5 mg; the “Blood Analysis wbc, figure in brackets (difference to control)” value is “+381.4”; the “Blood Analysis wbc, mean” value was 8025. Besides, in the data set with mice [1], the “Body Weight day 0, figure in brackets (difference to control)” value is “+2.2”; the “Body Weight day 0, mean” value amounted to 18.3 g; the “Body Weight day 7, figure in brackets (difference to control)” value is listed as “+2.3”; the “Body Weight day 7, mean” value was found to be 26.3 g. Also, in the data set on mice [1], the “Eight day administration: glucocorticoid (steroid-like) properties” value was “no glucocorticoid”; the “Eight day administration: toxicity (remark)” value is recorded as “Non-toxic”; the “Food Consumption, figure in brackets (difference to control)” value is -7.1; the “Food Consumption, mean” value stood at 5.47. Further, in the data set on mice [1], the “H2 O Consumption, figure in brackets (difference to control)” value is -25.7; the “H2 O Consumption, mean” value worked out at 6.1 ml/mouse/day; the “Organ Wts Adrenal, figure in brackets (difference to control)” value was “+32.3”; the “Organ Wts Adrenal, mean” value is recorded as 18.41. In the data set with mice [1], the “Organ Wts Heart, figure in brackets (difference to control)” value is listed as -17.7; the “Organ Wts Heart, mean” value amounted to 0.35; the “Organ Wts Kidney, figure in brackets (difference to control)” value is given as -9.2; the “Organ Wts Kidney, mean” value was 1.28. Besides, in the data set with mice [1], the “Organ Wts Liver, figure in brackets (difference to control)” value was “+8.9”; the “Organ Wts Liver, mean” value is recorded as 6.32; the “Organ Wts Spleen, figure in brackets (difference to control)” value is “+71.7”; the “Organ Wts Spleen, mean” value is 0.83. Besides, in the data set on mice [1], the “Organ Wts Testes, figure in brackets (difference to control)” value was -6.5; the “Organ Wts Testes, mean” value came to 0.49; the “Organ Wts Thymus, figure in brackets (difference to control)” value is listed as -18.4; the “Organ Wts Thymus, mean” value is 0.37. In addition, in the data set on mice [1], the “effect on adrenal gland weight” value is listed as “did not alter adrenal gland weight”; the “effect on body weight” value is recorded as “grew to normal body weight”; the “effect on spleen” value is given as “markedly enlarged the spleen”; the “effect on thymus weight and size” value was “only slightly decreased thymus weight and size”. In the data set on mice [1], the “healing of injection wound sites (acutely immunosuppressive)” value is listed as “injection wound sites did not heal” and the “increase in white blood cell count over control” value worked out at 400%. In data set [3], the “PMA - Mouse Ear Anti-inflammatory ED50” value was 40 microgram/ear.
With `CN1CC[C@]23c4c5ccc(O)c4O[C@H]2[C@@H](O)C=C[C@H]3[C@H]1C5` [morphine, reference compound], the ED50 in the data set on mice [2] (read-out: ED50 (analgesia)) is about 0.6 mg/kg.
